Experimental data: US20200354427A1 (Eli Lilly, published 2020)

Tests used:
[1] = biological target: T1, human RANKL (receptor activator of nuclear factor kappa-B ligand) (human, UniProt O14788 140-317, limits assumed); test: cell-based or functional assay
T1 sequence (looked up): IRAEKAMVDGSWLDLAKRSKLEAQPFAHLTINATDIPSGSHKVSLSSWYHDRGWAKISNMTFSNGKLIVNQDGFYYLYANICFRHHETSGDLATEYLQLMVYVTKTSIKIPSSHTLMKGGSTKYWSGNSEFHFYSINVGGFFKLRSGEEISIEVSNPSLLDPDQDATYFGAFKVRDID

[2] = biological target: T2, PTH receptor (PTHR1 receptor) endogenously expressed by rat osteosarcoma UMR-106 cells (rat, UniProt P25961 27-591); test: cell-based or functional assay
T2 sequence (looked up): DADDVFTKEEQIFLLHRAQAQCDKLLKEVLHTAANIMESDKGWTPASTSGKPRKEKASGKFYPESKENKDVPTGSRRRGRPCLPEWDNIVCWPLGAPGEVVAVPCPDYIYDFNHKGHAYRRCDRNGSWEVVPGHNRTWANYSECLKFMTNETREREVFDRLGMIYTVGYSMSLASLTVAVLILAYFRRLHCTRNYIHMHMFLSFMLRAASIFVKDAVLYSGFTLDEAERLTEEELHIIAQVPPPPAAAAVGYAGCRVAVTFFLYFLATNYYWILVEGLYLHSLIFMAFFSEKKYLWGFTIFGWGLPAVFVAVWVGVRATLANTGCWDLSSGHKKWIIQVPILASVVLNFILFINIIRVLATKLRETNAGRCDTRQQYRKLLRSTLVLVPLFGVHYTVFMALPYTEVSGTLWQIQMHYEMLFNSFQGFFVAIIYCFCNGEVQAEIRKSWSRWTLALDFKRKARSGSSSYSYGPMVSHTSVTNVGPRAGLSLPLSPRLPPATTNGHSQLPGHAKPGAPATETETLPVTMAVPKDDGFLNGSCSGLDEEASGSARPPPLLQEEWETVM

[3] = biological target: T3, murine RANKL (murine, UniProt O35235 139-316, limits assumed); test: SPR (Biacore 2000), fusion compound captured on protein A, RANKL as analyte, 25 C, 1:1 model, n=1
T3 construct: Soluble analyte in SPR
T3 sequence (looked up): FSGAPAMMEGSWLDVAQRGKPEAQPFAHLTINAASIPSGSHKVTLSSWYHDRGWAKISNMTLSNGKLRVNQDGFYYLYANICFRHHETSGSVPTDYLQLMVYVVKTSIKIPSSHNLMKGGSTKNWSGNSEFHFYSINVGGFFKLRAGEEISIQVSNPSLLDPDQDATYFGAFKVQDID
Method: (§1) A CM5 chip (Biacore, p/n.BR-100530) containing immobilized protein A (generated using standard NHS-EDC amine coupling) on all four flow cells (Fc) is used to employ a capture methodology. Fusion compound samples are prepared at 2 μg/mL by dilution into running buffer. Human and murine RANKL samples, respectively, are prepared at final concentrations starting at 5 nM and using two-fold serial dilutions (in running buffer) for each cycle.
(§2) Each analysis cycle consists of (1) capturing antibody samples on separate flow cells (Fc2 and Fc3); (2) injection of each human and murine RANKL concentration, respectively, over all Fc at 100 μL/min for 150 seconds followed by return to buffer flow for 1.800 seconds to monitor dissociation phase; (3) regeneration of chip surfaces with injection of 1.0 mM glycine, pH 1.5, for 120 seconds at 5 μL/min over all cells; and (5) equilibration of chip surfaces with a 10 μL (60-sec) injection of HBS-EP+. Data are processed using standard double-referencing and fit to a 1:1 binding model using Biacore 2000 Evaluation software, version 2.0.3, to determine the association rate (kₒₙ, M⁻¹s⁻¹ units), dissociation rate (koff, s⁻¹ units), and Rₘₐₓ (RU units). The equilibrium dissociation constant (KD) is calculated from the relationship KD=koff/kₒₙ, and is in molar units.

[4] = biological target: T1, human RANKL (receptor activator of …); test: SPR (Biacore 2000), fusion compound captured on protein A, RANKL as analyte, 25 C, 1:1 model, n=4
Method: as §1, §2

IC50 (nM) hRANKL; neutralization of RANKL-induced NF-kB driven luciferase luminescence [1]: 0.067 nM
EC50 (nM); PTHR1 activation, CRE-regulated luciferase luminescence in UMR-106 cells [2]: 6.6 nM
Kd [3]: 0.00837 nM
koff [3]: 9.69e-05 s⁻¹
kon [3]: 1.16e+07 M⁻¹ s⁻¹
Kd [4]: 0.00482 nM
koff [4]: 1.69e-05 s⁻¹
kon [4]: 3.5e+06 M⁻¹ s⁻¹
B1: exemplified fusion compound (parathyroid hormone-anti-RANKL antibody fusion compound of Table 1) (other)
heavy: SVSEIQLMHNLGKHLNSMERVEWLRKKLQDVHNFGGGGSGGGGSGGGGSQVQLVQSGAEVKKPGSSVKVSCKASGYAFTNYYIEWVRQAPGQGLEWMGVINPGWGDTNYNEKFKGRVTITADKSTSTAYMELSSLRSEDTAVYYCARRDTAHGYYALDPWGQGTTVTVSSASTKGPSVFPLAPCSRSTSESTAALGCLVKDYFPEPVTVSWNSGALTSGVHTFPAVLQSSGLYSLSSVVTVPSSSLGTKTYTCNVDHKPSNTKVDKRV[human IgG4 Fc with S228P F234A L235A (EU numbers) not written out]
light: DIQMTQSPSSLSASVGDRVTITCKASQNVGTNVAWYQQKPGKAPKLLIYSASYRYSGVPSRFSGSGSGTDFTLTISSLQPEDFATYYCQQYWDYPLTFGGGTKVEIKRTVAAPSVFIFPPSDEQLKSGTASVVCLLNNFYPREAKVQWKVDNALQSGNSQESVTEQDSKDSTYSLSSTLTLSKADYEKHKVYACEVTHQGLSSPVTKSFNRGEC
modifications: glycosylated at asparagine residue 347 of SEQ ID NO: 1
notes: PTH(1-34) joined by a (G4S)3 linker to the N-terminus of each heavy chain of an IgG4 anti-RANKL mAb; It has two first and two second polypeptides; The signal peptides are cleaved after translation; also called Exemp. fusion cmpd
